Measured values reported in publication PMC6759578.
These are yes or no findings as the source states them, for the method shown. Binding seen in cells or lysates may run through a third protein. Some results given as binding are weak or reduced against the parent protein; the word gives no strength. For some of these results: Tags and fused reporters may be left off the sequences shown.

Chains of the proteins cited; added tags and fusions are not shown.
UniProt Q8IUC6: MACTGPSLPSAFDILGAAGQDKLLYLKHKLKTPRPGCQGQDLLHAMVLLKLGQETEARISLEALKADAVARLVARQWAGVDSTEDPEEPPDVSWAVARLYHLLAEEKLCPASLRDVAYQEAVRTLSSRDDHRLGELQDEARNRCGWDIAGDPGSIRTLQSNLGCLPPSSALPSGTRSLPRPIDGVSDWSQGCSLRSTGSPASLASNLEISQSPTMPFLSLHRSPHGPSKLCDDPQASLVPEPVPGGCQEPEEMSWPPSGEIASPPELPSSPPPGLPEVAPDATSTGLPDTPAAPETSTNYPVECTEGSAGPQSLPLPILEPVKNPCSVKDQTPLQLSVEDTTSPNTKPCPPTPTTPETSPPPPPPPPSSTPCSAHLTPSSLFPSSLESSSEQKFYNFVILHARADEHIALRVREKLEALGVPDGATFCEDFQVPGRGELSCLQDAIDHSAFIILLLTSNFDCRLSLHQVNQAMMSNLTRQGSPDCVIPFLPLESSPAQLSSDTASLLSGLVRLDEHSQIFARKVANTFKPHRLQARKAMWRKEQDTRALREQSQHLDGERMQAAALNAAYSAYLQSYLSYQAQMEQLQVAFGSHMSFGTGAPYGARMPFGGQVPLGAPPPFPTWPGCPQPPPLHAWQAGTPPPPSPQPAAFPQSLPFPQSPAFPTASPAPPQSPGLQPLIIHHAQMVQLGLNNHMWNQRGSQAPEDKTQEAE
UniProt Q7Z434: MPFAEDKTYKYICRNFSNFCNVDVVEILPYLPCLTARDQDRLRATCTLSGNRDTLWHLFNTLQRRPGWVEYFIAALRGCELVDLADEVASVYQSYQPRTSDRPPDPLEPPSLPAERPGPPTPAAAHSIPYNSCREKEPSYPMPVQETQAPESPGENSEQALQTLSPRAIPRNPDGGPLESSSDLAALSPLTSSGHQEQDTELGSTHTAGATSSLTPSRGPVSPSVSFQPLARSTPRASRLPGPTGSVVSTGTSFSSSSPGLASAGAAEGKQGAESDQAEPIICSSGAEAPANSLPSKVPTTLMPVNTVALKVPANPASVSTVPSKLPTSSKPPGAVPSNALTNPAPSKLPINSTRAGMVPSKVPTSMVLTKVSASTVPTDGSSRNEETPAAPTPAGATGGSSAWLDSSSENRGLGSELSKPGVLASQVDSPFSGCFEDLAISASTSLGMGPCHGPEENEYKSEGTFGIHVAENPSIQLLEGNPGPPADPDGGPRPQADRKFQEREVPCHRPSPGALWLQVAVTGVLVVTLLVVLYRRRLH

Assays:
FLAG-TRIF = FLAG-TRIF (UniProt Q8IUC6); experiment: co-IP; HEK293T cells co-transfected with HA-DDX23 (full size or truncations) and FLAG-tagged adaptor; IP lysis buffer (50 mM Tris pH 7.4, 150 mM NaCl, 1% NP-40, 0.5% deoxycholate); precipitated with anti-FLAG beads, blotted with anti-HA
FLAG-MAVS = FLAG-MAVS (UniProt Q7Z434); experiment: as above
[1] = biological target: FLAG-tagged TRIF (expressed in A549 cells) (UniProt Q8IUC6); experiment: co-IP; A549 cells transfected with FLAG-tagged TRIF for 24 h, with or without poly(I:C) stimulation; anti-FLAG and Protein G beads; blotted with DDX23 and MAVS antibodies
FLAG-STING, Q86WV6 = experiment: co-IP; HEK293T cells co-transfected with HA-DDX23 (full size or truncations) and FLAG-tagged adaptor; IP lysis buffer (50 mM Tris pH 7.4, 150 mM NaCl, 1% NP-40, 0.5% deoxycholate); precipitated with anti-FLAG beads, blotted with anti-HA; details: remark: other sources report otherwise

B1: HA-DDX23 (human DDX23, full size) (protein, UniProt Q9BUQ8 1-820)
chain: MAGELADKKDRDASPSKEERKRSRTPDRERDRDRDRKSSPSKDRKRHRSRDRRRGGSRSRSRSRSKSAERERRHKERERDKERDRNKKDRDRDKDGHRRDKDRKRSSLSPGRGKDFKSRKDRDSKKDEEDEHGDKKPKAQPLSLEELLAKKKAEEEAEAKPKFLSKAEREAEALKRRQQEVEERQRMLEEERKKRKQFQDLGRKMLEDPQERERRERRERMERETNGNEDEEGRQKIREEKDKSKELHAIKERYLGGIKKRRRTRHLNDRKFVFEWDASEDTSIDYNPLYKERHQVQLLGRGFIAGIDLKQQKREQSRFYGDLMEKRRTLEEKEQEEARLRKLRKKEAKQRWDDRHWSQKKLDEMTDRDWRIFREDYSITTKGGKIPNPIRSWKDSSLPPHILEVIDKCGYKEPTPIQRQAIPIGLQNRDIIGVAETGSGKTAAFLIPLLVWITTLPKIDRIEESDQGPYAIILAPTRELAQQIEEETIKFGKPLGIRTVAVIGGISREDQGFRLRMGCEIVIATPGRLIDVLENRYLVLSRCTYVVLDEADRMIDMGFEPDVQKILEHMPVSNQKPDTDEAEDPEKMLANFESGKHKYRQTVMFTATMPPAVERLARSYLRRPAVVYIGSAGKPHERVEQKVFLMSESEKRKKLLAILEQGFDPPIIIFVNQKKGCDVLAKSLEKMGYNACTLHGGKGQEQREFALSNLKAGAKDILVATDVAGRGIDIQDVSMVVNYDMAKNIEDYIHRIGRTGRAGKSGVAITFLTKEDSAVFYELKQAILESPVSSCPPELANHPDAQHKPGTILTKKRREETIFA
B1 was tested. Which binding (FLAG-TRIF) did it give?
The binding was “binds”.

And the binding (FLAG-MAVS)?
The binding was “binds”.

B2: endogenous DDX23 (protein, UniProt Q9BUQ8 1-820)
chain: B1 chain
For B2, which binding [1] is on record?
The binding was “binds”.

B3: HA-DDX23 (human DDX23, full size), Q9BUQ8 1-820 (protein)
chain: B1 chain
For B3, which binding (FLAG-STING, Q86WV6) is on record?
Its binding is “no binding”.
